Measurements: PubChem BioAssay AID686978 (National Center for Advancing Translational Sciences (NCATS), 2013)
In all, about 420,000 compounds went through this assay and about 64,000 (15%) were called active. Inconclusive means that the source gave no clear call. Such entries were picked first, then a sample of the others. The call rests on the fitted dose curve; in most records, active means well fitted inhibition curve with a large enough effect; inconclusive means small, poorly fitted or top-dose-only effect; inactive means flat fitted curve, though single readings scatter. No potency is given beside an inconclusive call; the fits are too rough.

Assay: qHTS for Inhibitors of human tyrosyl-DNA phosphodiesterase 1 (TDP1): qHTS in cells in absence of CPT; further: nearly all actives have a fitted effect of over 55% in size
Settings: DT40 Tdp1-/- hTDP1 cells, no CPT, ATP luminescence, 48 h; series mostly up to 46.2 µM
How it was run: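 Camptothecin absent (DMSO only). Human TDP1-complemented DT40 knockout cells, 400 cells/well, 37 °C for minimum 48 hr; ATP measured via CellTiter-Glo, 30 min dark incubation, luminescence.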
Potency means the concentration at half of the fitted maximal effect; tags describe the fitted curve by direction and shape.

SMILES	Potency
COc1ccc(-n2c(=O)c(CCC(=O)N(C)Cc3ccccc3C)nc3ccccc32)cc1	inconclusive [inhibitor, single point]
Clc1ccc(-c2nc3cnccn3c2Nc2ccc3c(c2)OCO3)cc1	active: 20.6 µM
Cc1ccc(-c2nnn(CC(=O)N(c3cccc(F)c3)C(C(=O)NC3CCCC3)c3ccco3)n2)o1 (stereo not given)	active: 16.4 µM
O=C(C(=O)N1CCC(c2ccccc2)CC1)c1ccc(F)c(F)c1	inconclusive [inhibitor, single point]
COc1ccc(NC(=O)Nc2ccc3c(c2)CC(=O)N([C@H](C)CO)C[C@H](C)[C@H](CN(C)Cc2ccc(C(=O)O)cc2)O3)cc1	inactive
C[C@@H]1CN([C@@H](C)CO)C(=O)c2cc(Br)cnc2O[C@@H]1CN(C)S(=O)(=O)c1ccc(F)cc1	inconclusive [inhibitor, partial curve, poor fit]
C=CCn1c(SCC(=O)NC(=O)NCc2ccco2)nc2sc(C)c(C)c2c1=O	inconclusive [inhibitor, single point]
COc1cccc(-c2cc(C(=O)Nc3c(C)nn(Cc4ccccc4Cl)c3C)no2)c1	active: 13 µM
Cc1cc2nnc(SCc3ccc(F)cc3)n2c2ccccc12	inconclusive [inhibitor, single point]
CN1CCN(C2(CNC(=O)c3ccc(C(C)(C)C)cc3)CCCCC2)CC1	active: 16.4 µM
CC(=O)NS(=O)(=O)c1ccc(NC(=O)c2cccc(S(=O)(=O)N3CCc4ccccc43)c2)cc1	inactive
O=C(Cc1ccccc1)Nc1ccc(NC(=O)c2ccccc2)c(Cl)c1	inconclusive [inhibitor, partial curve]
Cc1ccc(-c2ccc(S(=O)(=O)NCC3CCCO3)cc2)cc1 (stereo not given)	inconclusive [inhibitor, single point]
S=C(Nc1ccccc1Oc1ccccc1)Nc1cccc(Cl)c1Cl	inconclusive [inhibitor, single point]
O=C(CN(C(=O)C1CSC(=O)C1)c1ccc(F)cc1)NCc1ccc2c(c1)OCO2 (stereo not given)	inactive
COc1ccc(CNC(=O)CNC(=O)c2ccc(C(C)(C)C)cc2)cc1OC	inactive
O=C(CCNC(=O)c1ccc(Br)cc1)Nc1ccc(S(=O)(=O)N2CCCCC2)cc1	inactive
FC(F)(F)c1ccc(NC(=S)NC2CCCCC2)cc1	active: 18.4 µM
CC(=O)Nc1cccc(-c2cc(NC(C)=O)c3ncc(-c4ccc(F)cc4)n3c2)c1	active: 14.6 µM
COc1cccc(C(=O)COC(=O)c2n[nH]c(=O)c3ccccc23)c1	inactive
